Experimental data reported in article PMC12136788.
This is one part of the list.

B1: chr1:156243319:156244403:-|three_prime_utr|ENSG00000160781|control|control|control (ssRNA)
RNA: GGGAGUUCUACAGUCCGACGAUCACCAACAGGGGCUGAGGAGAGAGGGCACAGGAGAGAGGGCAGAGAAGAGGAGGGGUGUCUAGGGGGACUGGCAGAGUGUGAGAGGGACCGUGAGGGGGCUCUUGAUGGGAGUGGAAGAAGCAACAGAGGAUUGAGCAUCA
B2: chr6:52498635:52498743:-|3pUTR|ENSG00000065308|msi1|FALSE|unique (ssRNA)
RNA: GGGAGUUCUACAGUCCGACGAUCAAAGGGACACGGAUUGUGACAGUUUCACCCCAUUUGUUUCUAACCCCGCUGCCCAGGAUUAGGGUCUGUGGUGUGUUCUGUUUUGUUUUUGGUUUCUCCCUUGUGUCAGUUCUCUUCUGGCAACAGAGGAUUGAGCAUCA
B3: chr1:178849534:178851128:-|three_prime_utr|ENSG00000116194|control|control|control (ssRNA)
RNA: GGGAGUUCUACAGUCCGACGAUCCUACACAGAAAGUUUUUAAAAUGAAUUUUACCGUAACUAUAAAAGGGAACCUAUAAAUGUAGUUUCAUCUGUCGUCAAUUACUGCAGAAAAUUAUGUGUAUCCACAACCUAGUUAUUUUACAACAGAGGAUUGAGCAUCA
B4: chr1:13223334:13223905:-|CDS|ENSG00000279804|control|control|control (ssRNA)
RNA: GGGAGUUCUACAGUCCGACGAUCUCUUGAGCCCCUCCGAGCUCUGCUAGAGAAAGUUGCUGCCACUCUUCAGACCCUCUUCUUAGUGGACUGUGGGAUUGGGUACUCCAAACUCAGGGUCAUCCUGCCUGCCCUGAGCCGCUGCAACAGAGGAUUGAGCAUCA
B5: chr8:18529670:18529771:-|3pUTR|ENSG00000156011|msi1|total|mutant (ssRNA)
RNA: GGGAGUUCUACAGUCCGACGAUCUAAAGCCAUGGAGUUUAUAAAGCCAAGUAACCAUUUGAUAUGGAUAAUAAUAUCUACUCCCGAGAGAGUAUAUAUAUGCACAUUGAUUUUUAAUGCUGUUAAGAUACUUUUGUAAAACUGCAACAGAGGAUUGAGCAUCA
B6: chr2:101892430:101892531:+|3pUTR|ENSG00000071054|msi1|FALSE|unique (ssRNA)
RNA: GGGAGUUCUACAGUCCGACGAUCCCAUUAGAGGUUGAUGGGGCAACUGCAGCCCAUGACACAAGAUCUCAUUGUUCUCGAUGUAGAGGGGUUGGUAGCAGACAGGUGGUUACAUUAGAAUAGUCACACAAACUGUUCAGUGUUCAACAGAGGAUUGAGCAUCA
B7: chr4:112276399:112276500:-|3pUTR|ENSG00000145365|unk|total|mutant (ssRNA)
RNA: GGGAGUUCUACAGUCCGACGAUCUUAUUCCCUGUGAUGCCCAGAGUAAUGGCCCAUCCAAAGAUGUCCAGAUGUCCAUGUGCCCGUCUCCAGAACUUGUAACUGUGUUGUUAUGUGGCAAAGGGGAAUGAAGGCUGCAGAUGGCAACAGAGGAUUGAGCAUCA
B8: chr1:204551843:204551944:+|3pUTR|ENSG00000198625|unk|total|mutant (ssRNA)
RNA: GGGAGUUCUACAGUCCGACGAUCAGUGUUCCUGGAAUCUCUAUGCAAGUUUUAUACAGAACAUACUUUUGGAAUCCUUGCCCCCGACAGGGGUGUCCAAUCUUUUGGCUUCCCUGGUCCACAAUGGAAGAAGAAUUGUCUUGGCAACAGAGGAUUGAGCAUCA

These binders were tested against MSI1 full-length (mouse, UniProt Q61474 1-362) (assay: nsRBNS (natural sequence RNA bind-n-seq); RBNS binding buffer (assumed for nsRBNS): 25 mM Tris pH 7.5, 150 mM KCl, 3 mM MgCl2, 0.01% Triton X-100, 500 ug/ml BSA, 20 U/ml SUPERase-In, 4 C; UNK is unkempt and MSI1 is Musashi-1; names of the RNAs are library labels; protein concentration not given here; high values mean tight binding).
Chain of UniProt Q61474 (Q61474 whole entry): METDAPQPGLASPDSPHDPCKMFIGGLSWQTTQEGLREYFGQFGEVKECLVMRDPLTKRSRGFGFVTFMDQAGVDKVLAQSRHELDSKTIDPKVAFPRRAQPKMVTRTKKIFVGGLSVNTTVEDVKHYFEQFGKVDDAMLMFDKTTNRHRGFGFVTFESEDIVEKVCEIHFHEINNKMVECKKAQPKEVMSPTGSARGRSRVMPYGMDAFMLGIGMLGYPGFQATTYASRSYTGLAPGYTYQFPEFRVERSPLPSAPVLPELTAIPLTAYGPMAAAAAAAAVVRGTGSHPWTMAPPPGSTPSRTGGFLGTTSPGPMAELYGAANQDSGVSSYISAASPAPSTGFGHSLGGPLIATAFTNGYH
In the case of B1, the binding signal is reported as 0.665 enrichment R.
B2 showed a binding signal of 0.442 enrichment R.
B3 showed a binding signal of 4.06 enrichment R.
B4 showed a binding signal of 0.637 enrichment R.
B5 was tested, and the binding signal was 0.648 enrichment R.
Binder B6 has a binding signal of 0.751 enrichment R.
For B7, the binding signal was 0.394 enrichment R.
Work on B8 yielded a binding signal of 0.211 enrichment R.
